About 2,200 (0.71%) of roughly 310,000 compounds showed an effect of 50% or more. The effect is printed as a negative number. The list shows a part of the results.
Target: human ether-à-go-go-related gene (hERG) potassium channel (human, UniProt Q12809)
Assay: primary screen, population patch clamp on CHO cells stably expressing hERG

Sequence of human ether-à-go-go-related gene (hERG) potassium channel (Q12809 whole entry, looked up): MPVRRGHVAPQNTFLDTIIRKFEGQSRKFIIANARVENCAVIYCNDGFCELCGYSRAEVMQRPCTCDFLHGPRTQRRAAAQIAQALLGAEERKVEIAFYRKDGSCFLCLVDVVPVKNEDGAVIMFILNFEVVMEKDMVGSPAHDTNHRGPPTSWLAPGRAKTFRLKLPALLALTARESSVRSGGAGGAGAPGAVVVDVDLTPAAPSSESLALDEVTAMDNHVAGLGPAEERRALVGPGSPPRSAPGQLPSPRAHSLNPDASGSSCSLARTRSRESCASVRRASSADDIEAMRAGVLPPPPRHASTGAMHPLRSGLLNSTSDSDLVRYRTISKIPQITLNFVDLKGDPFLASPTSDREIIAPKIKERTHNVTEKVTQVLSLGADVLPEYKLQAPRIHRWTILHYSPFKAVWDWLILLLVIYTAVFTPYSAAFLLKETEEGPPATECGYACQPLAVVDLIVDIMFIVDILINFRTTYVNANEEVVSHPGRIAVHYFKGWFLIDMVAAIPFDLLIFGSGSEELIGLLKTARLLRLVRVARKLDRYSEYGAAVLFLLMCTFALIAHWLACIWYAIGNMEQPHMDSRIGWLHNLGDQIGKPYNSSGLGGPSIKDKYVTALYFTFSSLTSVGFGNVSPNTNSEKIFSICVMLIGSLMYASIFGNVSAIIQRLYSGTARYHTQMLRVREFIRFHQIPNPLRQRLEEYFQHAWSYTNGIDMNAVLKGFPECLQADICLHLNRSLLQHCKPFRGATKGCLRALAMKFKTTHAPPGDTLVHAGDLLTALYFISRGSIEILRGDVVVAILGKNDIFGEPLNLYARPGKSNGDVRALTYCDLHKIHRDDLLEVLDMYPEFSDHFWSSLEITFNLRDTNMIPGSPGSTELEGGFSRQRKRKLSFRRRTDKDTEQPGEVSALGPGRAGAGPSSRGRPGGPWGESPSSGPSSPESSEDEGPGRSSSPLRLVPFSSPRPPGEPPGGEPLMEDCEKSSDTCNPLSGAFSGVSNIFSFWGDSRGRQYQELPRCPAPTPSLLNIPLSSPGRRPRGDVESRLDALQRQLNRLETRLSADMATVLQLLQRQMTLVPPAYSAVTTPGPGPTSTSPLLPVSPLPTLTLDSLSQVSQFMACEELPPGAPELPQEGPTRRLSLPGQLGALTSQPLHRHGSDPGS

| SMILES | hERG current change (%, negative = inhibition) at 1uM [%] |
| --- | --- |
| CCN(CC)CCCn1c2c(c(SCC(=O)Nc3nc4ccccc4s3)nc1=O)CCC2 | -35.9 |
| COc1ccc(OCCCC(=O)Oc2ccc(OC)cc2)cc1 | 1.13 |
| COc1ccc(C2c3ccc(O)cc3Oc3ncn4nc(-c5ccccn5)nc4c32)cc1OC (stereo not drawn) | -50.1 |
| O=C(NNS(=O)(=O)c1ccccc1[N+](=O)[O-])c1ccccc1Cl | 26.1 |
| COc1ccc(C(=O)CSc2nnc(C(CO)NC(=O)c3ccc(OC)cc3)n2C)cc1 (stereo not drawn) | 8.35 |
| N#Cc1c(C(F)(F)F)cc(-c2ccccc2)[nH]c1=O | 9.98 |
| O=C(Nc1ccc2nc3n(c(=O)c2c1)CCCC3)c1cccc([N+](=O)[O-])c1 | 1.94 |
| CN(C)c1ccc(/C=N/NS(=O)(=O)c2ccc(Br)cc2)cc1 | 10.1 |
| CCC(=O)c1cc(F)ccc1OCC(=O)N1CCN(c2ccc(F)cc2)CC1 | -43.9 |
| Cc1ccc(CNS(=O)(=O)c2c(C)[nH]c(C)c2C(=O)N2CCCCC2)cc1 | 14.5 |
| COCCN(C(=O)C(C)C)c1nnc(-c2ccc(C(C)(C)C)cc2)s1 | 9.65 |
| O=[N+]([O-])c1ccc(Cl)cc1 | 8.95 |
| COc1ccc(CCNC(=O)c2cccc3ccccc23)cc1OC | 22 |
| O=C(NCC(=O)N(c1cccnc1)C(C(=O)NC1CCCCC1)c1ccccc1)c1ccco1 (stereo not drawn) | 21.6 |
| CC(C)Nc1nc(-c2ccccn2)nc(-c2ccccc2)c1C#N | 0.0106 |
| COc1cccc2cc(C(=O)NCC3CCCO3)c(=O)oc12 (stereo not drawn) | 11.6 |
| O=C(CSc1ccc(-c2ccc(F)cc2)nn1)N1CCOCC1 | -3.84 |
| CN(C)S(=O)(=O)c1ccc(N2CCCC2)c(C(=O)NCC(=O)Nc2ccc(F)c(F)c2)c1 | 5.27 |
| COc1ccc(NC(=O)c2sccc2SCC#N)cc1 | 6.97 |
| Fc1ccccc1OCC1CCCN(Cc2nc(CC3CC3)no2)C1 (stereo not drawn) | 4.87 |
| CCn1c(SCC(=O)c2c(N)n(C3CC3)c(=O)[nH]c2=O)nnc1-c1ccoc1C | 4.58 |
| S=c1nc2ccccc2c2nc(-c3cccnc3)[nH]n12 | 13.6 |

| SMILES | hERG current change (%, negative = inhibition) at 1uM [%] |
| --- | --- |
| COc1cccc(CN2CCN(Cc3nc(-c4cccc(F)c4F)oc3C)CC2=O)c1 | -0.884 |
| CCCN(CC(=O)Nc1ccccc1C)C(=O)c1oc2ccc(OCC)cc2c1C | 2.77 |
| O=C(NCc1ccncc1)c1ccc(NS(=O)(=O)c2ccccc2)cc1 | 8.62 |
| CCCCc1cc(=O)oc2c3c(cc(OCC(=O)N4CCC[C@H]4C(=O)O)c12)OC(C)(C)CC3 | 13.3 |
| Cc1ccccc1OCc1nnc(SCC(=O)Nc2ccc3nc(SCC(=O)NC(C)(C)C)sc3c2)n1C | 6.82 |
| CCOC(=O)Cn1ncn(-c2ccc(OC(F)(F)F)cc2)c1=O | 3.95 |
| CCOc1ccccc1C(=O)Nc1cccc(-c2ccc(N3CCOCC3)nn2)c1 | 2.92 |
| O=C(NCc1ccco1)C1CC(c2ccc(Cl)c(Cl)c2)=NO1 (stereo not drawn) | 16 |
| CCOC(=O)NC1Cc2ccccc2C1Sc1ccccn1 (stereo not drawn) | 17.9 |
| CCCCN(Cc1ccco1)C(=O)c1cc2c(=O)[nH]c3ccc(C)cc3c2s1 | 17.2 |
| N#Cc1cccc(NC(=O)CNc2cccc(S(=O)(=O)N3CCCC3)c2)c1 | 3.5 |
| O=C(COC(=O)CCC1CCCC1)Nc1cccc(S(=O)(=O)N2CCOCC2)c1 | 10.9 |
| CCCc1cc(=O)n2c([nH]c3ccccc32)c1C#N | 11.3 |
| Cc1oc2nc(SCC(=O)NCCCO)nc(N)c2c1C | 3.07 |
| CS(=O)(=O)N(CCc1ccccc1)CC(=O)Nc1ccc(Br)cc1F | 12.5 |
| COc1cccc(CNC(C)(C)CO)c1OCc1ccc(Cl)cc1.Cl | -5.65 |
| Br.C(CCCN1CCCCC1)CCN1CCCCC1 | 6.68 |
| Cc1ccc(C2CC(c3cccs3)=NN2C(=O)CSc2nc(=O)n3cc(C)ccc3n2)cc1 (stereo not drawn) | -25.5 |
| CCOc1ccc(OCCC(=O)N2CCN(S(=O)(=O)c3cccc(F)c3)CC2)cc1 | 6.58 |
| CC(=O)NCCc1nc2ccccc2n1Cc1cc(C)ccc1C | 10.5 |
| CCOC(=O)C1CCN(S(=O)(=O)c2ccc3[nH]c(=O)c(=O)[nH]c3c2)CC1 | 6.09 |
| Cc1cccn2c(=O)c3c(nc12)N1CCC(Cc2ccccc2)CC1C1(C3)C(=O)N(C)C(=O)N(C)C1=O (stereo not drawn) | 7.21 |

| SMILES | hERG current change (%, negative = inhibition) at 1uM [%] |
| --- | --- |
| CC(C)c1ccc(C(=O)NCCCN2CCOCC2)cc1 | 2.78 |
| Cc1ccc(S(=O)(=O)N2CCCCC2)cc1NC(=O)Cn1cnnn1 | 3.79 |
| O=C(CN1C(=O)c2ccccc2C1=O)N1CCN(C2c3ccccc3-c3ccccc32)CC1 | 14 |
| O=C(NC1CCCCC1)c1ccc(CS(=O)(=O)c2ccc(Cl)cc2)o1 | 7.6 |
| COc1ccc(CNC(=O)c2cc3c(=O)n4ccccc4nc3n(CC3CCCO3)c2=N)cc1 (stereo not drawn) | -80.4 |
| Nc1c(-c2ccc(Cl)cc2)nnn1-c1ccccc1 | -3.84 |
| O=C1C2C3C=CC(CC3)C2C(=O)N1c1ccc(Br)cc1[N+](=O)[O-] (stereo not drawn) | 12.4 |
| Cc1ccc(OC(C)C(=O)Nc2ccccc2C(=O)NCc2cccnc2)cc1C (stereo not drawn) | 13.3 |
| c1ccc(-c2cn(C[C@H]3CC[C@H](Cn4cc(-c5ccccn5)nn4)O3)nn2)nc1 | 3.21 |
| COc1ccc(NC(=O)Cn2nnc(-c3ccccc3NS(=O)(=O)c3ccccc3)n2)cc1 | 6.08 |
| NC(=O)C(=O)N/N=C/c1c2ccccc2cc2ccccc12 | -4.48 |
| COc1cc(OC)nc(/N=C/NO)n1 | 17.2 |
| COc1ccc(NCN2C(=O)CCC2=O)cc1 | 5.32 |
| Cc1cc(C)c2nc(NC(=O)c3cc(C)on3)sc2c1 | -0.226 |
| CCN(CC)CC(O)COc1ccccc1C(=O)CCc1ccccc1 (stereo not drawn) | 7.28 |
| C/C(=N\NC(=O)CN(c1ccccc1Br)S(C)(=O)=O)c1cccs1 | 14.9 |
| CCCC(=O)Nc1cnc(NC(=O)c2cccc(F)c2)cc1C | 6.68 |
| C=CCn1c(O)c(N=NC(=S)Nc2ccccc2F)c2ccccc21 | 4.98 |
| CCOc1cc(C(=O)NCCCn2ccnc2)cc(OCC)c1OCC | 4.75 |
| O=C1N(c2ccccc2)C(c2ccccc2)N2CCCN12 (stereo not drawn) | 14.1 |
| O=C(O)CCCN=C1CCCc2ccccc2N1 | 0.516 |
| CN(C)S(=O)(=O)c1ccc(S(=O)(=O)N2CCCC(C(=O)NC3CCCC3)C2)cc1 (stereo not drawn) | 4.55 |

| SMILES | hERG current change (%, negative = inhibition) at 1uM [%] |
| --- | --- |
| Cc1cc(C)cc(N(CC(=O)Nc2ccc(Br)cc2)S(=O)(=O)c2c(C)[nH]c(=O)[nH]c2=O)c1 | -11.5 |
| O=C(CSc1nnc(-c2ccccc2F)o1)NC1CCCCC1 | 3.75 |
| O=C(Cc1ccc(Cl)c(Cl)c1)Nc1ccc(SC(F)F)cc1 | 11.2 |
| O=C(Cn1cnc2c(nnn2Cc2ccccc2)c1=O)N1CCN(c2ccccc2)CC1 | 0.418 |
| O=S(=O)(c1cnc(Cl)c(Cl)c1)N1CCCc2ccccc21 | 6.46 |
| CCn1c(SCC(=O)NCc2ccccc2)nnc1-c1ccccc1O | -5.21 |
| C/C(=N\NC(=O)c1nnn(-c2nonc2N)c1CSc1ccc(Cl)cc1)c1ccco1 | 5.24 |
| Cc1cccc(C)c1NC(=O)C(NC(=O)c1ccccn1)c1ccc([N+](=O)[O-])cc1 (stereo not drawn) | 16.3 |
| Cc1ccc(C(C(=O)NC2CCCCC2)N(C(=O)c2csnn2)C2CC2)o1 (stereo not drawn) | -39.3 |
| COc1ccccc1NC(=O)CN1C(=O)COc2ccc(S(=O)(=O)N3CCC(C)CC3)cc21 | 13.6 |
| Cc1ccc(-n2c(C)cc(/C=C3/SC(=O)N(CC(=O)N4CCOCC4)C3=O)c2C)nc1 | 10.3 |
| CC(C)Cn1c(N)c(C(=O)CCl)c(=O)n(C)c1=O | 13 |
| O=c1cc[nH]c2ccc(Cl)cc12 | 9.23 |
| Cc1cc(N2CCN(C(=O)Nc3ccccc3C#N)CC2)c2ccccc2n1 | -44.5 |
| O=C1N(Cc2ccc(F)cc2)CCN1c1ccc(F)cc1 | -23.3 |
| NS(=O)(=O)c1ccc(CCNCC(=O)N2CCC(Cc3ccccc3)CC2)cc1.O=C(O)C(=O)O | 1.8 |
| CC(=O)c1cccc(S(=O)(=O)NC(C)C2CC3CCC2C3)c1 (stereo not drawn) | 1.98 |
| CC1(CCl)CN1S(=O)(=O)c1ccccc1 (stereo not drawn) | 10.7 |
| Cc1cccc(-n2c(SCC(=O)O)nc3sc4c(c3c2=O)CCC4)c1 | 11.9 |
| Cc1ccccc1C(=O)N1CCN(c2ccc(NC(=S)NC(=O)c3cccs3)cc2)CC1 | 8.14 |
| O=C(COC(=O)/C=C/c1cccs1)Nc1nc(-c2ccccc2)cs1 | 10.9 |

From paper PMC4336329 (PLoS ONE, 2015)
